Among all 150,000 compounds or so, about 540 (0.36%) showed an effect of 50% or more. The list shows a part of the results.
Tested on: Plasmodium falciparum
Experiment: Primary screen in NF54 nanoGlo assay, in single point, at 2uM, 72h; a lower Z score goes with more inhibition
Assay type: functional, Erythrocyte
Conditions: timepoint 72 hour

Going from `COc1cc(NC(=O)C2CCN(S(C)(=O)=O)CC2)ncn1` to `Cc1cccc(CS(=O)(=O)N2CCC(C(=O)Nc3cccnc3)CC2)c1`, the “% Inhibition” value falls from -2% to -13%.

`O=C(Cc1ccc[nH]1)Nc1ccc(O)c(Cl)c1` and `O=C(NCc1ccccc1)c1nn[nH]c1Nc1cccc(Cl)c1` are the same in “% Inhibition” value: -5% for the first, -5% for the second.

Compared with `CCn1c(C(=O)NCCN2CCCC2)c(N2CCCC2=O)c2cc(F)ccc21`, `Cn1cc(S(=O)(=O)N2CCCCC2)cc1C(=O)NCCc1cccc(Cl)c1` is lower in “% Inhibition” value: 3% for the first, -12% for the second.

First: COC(=O)c1ccc(CN(C)CC(=O)NCCC2CCCCC2)nc1
Second: Cc1cnc(C)c(-c2ccc(C(=O)NCCN3CCCC[C@@H]3CO)cc2)n1
The “% Inhibition” value of the first is lower: -16% for the first, -10% for the second.

First: Cc1cnc(CNC(=O)Nc2cccc3c2CCCC3)cn1
Second: COCc1nccc(NC(=O)N[C@H]2CCCc3ccccc3C2)n1
The “% Inhibition” value of the first is higher: 6% for the first, -3% for the second.

Going from `Cc1oncc1CN1CCN(c2ccccn2)CC1` to `O=C(Cc1cccc2ccccc12)N1CCN(c2ccccn2)CC1`, the “% Inhibition” value rises from -2% to 1%.

Going from `O=C(Nc1nc2ccccn2n1)N[C@H]1CCN(c2ccc(Cl)cc2Cl)C1` to `C[C@H](NC(=O)Nc1nc2ccccn2n1)C1CCOCC1`, the “% Inhibition” value rises from -13% to -4%.

First: CC1CN(C(=O)Cc2cccc3ccccc23)CC(C)O1 (centres undefined)
Second: COCC(=O)N(C1CCOCC1)[C@H]1CCCN(C(=O)c2ccc3ccccc3n2)C1
The “% Inhibition” value of the first is lower: -8% for the first, -7% for the second.

First: CC(C)n1nccc1-c1ccc(-n2ccnc2)nn1
Second: Cc1nccnc1-c1ccn(CC(=O)Nc2cc(C(C)C)nn2C)n1
The “% Inhibition” value of the first is lower: -18% for the first, -7% for the second.

Compared with `CCOC(=O)c1nnsc1N1CCN(c2ccc(OC)cc2)CC1`, `COc1cccc(N2CCN(C(=O)c3ccc(C)c(-n4nnc5cccnc54)c3)CC2)c1` is lower in “% Inhibition” value: 5% for the first, -10% for the second.

Going from `Cc1cc(=O)c(C(=O)N(CC(C)C)[C@H]2CCCc3cccnc32)c[nH]1` to `O=C(c1cnccn1)N1C[C@@H]2OCC(=O)N(Cc3ccc(F)cc3)[C@@H]2C1`, the “% Inhibition” value rises from -4% to -2%.

Going from `CN(C)CCNC(=O)c1ccc(-c2ccnc(N3CCCC3)n2)cc1` to `COc1ccnc(N2CCn3ccnc3C2)n1`, the “% Inhibition” value rises from -6% to 7%.

Compared with `Cc1cc(CN(C)[C@H]2CCC(=O)N(CC3CCCCC3)CC2)on1`, `CCNC(=O)NCC[C@H]1CN(C2CCCCCC2)CCO1` is higher in “% Inhibition” value: -7% for the first, 0% for the second.

Compared with `Cc1nnccc1C(=O)N1CC2(CCCC2)C1`, `Cc1cccc(C(=O)N2C[C@@H]3CC[C@H]2CN(C(=O)c2cccnc2)C3)c1O` is higher in “% Inhibition” value: -31% for the first, 6% for the second.

Compared with `CCN(CC)c1nc2cc(C(=O)NCc3ccccc3OC)ccc2c(=O)n1Cc1ccccc1`, `Cc1cccc(-c2nnc3c4ccc(Cl)cc4nc(N4CCN(Cc5cccc(F)c5)CC4)n23)c1` is lower in “% Inhibition” value: 3% for the first, -13% for the second.

Going from `Cc1nc[nH]c1CN1C[C@H]2CC[C@@H](C1)N(C(=O)c1ncc(F)cc1F)C2` to `Cc1nn(CC(=O)N2C[C@H](C)Oc3cc(F)c(F)cc32)c(=O)n1C`, the “% Inhibition” value falls from 0% to -3%.

Compared with `CC1(C)CC[C@H](CNC(=O)c2cnn(-c3ccc(F)cc3)n2)O1`, `Cc1cnc(N)nc1N1CCC(Nc2ccccn2)CC1` is lower in “% Inhibition” value: 32% for the first, 19% for the second.

First: CC(C)[C@H](C)N(CC(=O)NCCc1ccc(S(N)(=O)=O)cc1)C1CC1
Second: O=S(=O)(c1ccc(C2CCCCC2)cc1)N1CCNCC1
The “% Inhibition” value of the first is lower: -11% for the first, -8% for the second.

Compared with `Cc1ccc2c(-c3cnc(N)s3)c[nH]c2c1`, `N#Cc1ccnc(N2CC[C@H]3[C@H](CCC(=O)N3CCc3c[nH]cn3)C2)c1` is lower in “% Inhibition” value: -7% for the first, -8% for the second.

First: COc1c(-c2noc(C3CCNCC3)n2)cc2c(c1OC)OCO2
Second: CNS(=O)(=O)C[C@H]1CCCN1c1nnc(C)c(C)c1C#N
The “% Inhibition” value of the first is lower: -5% for the first, 1% for the second.

First: CN(CC1CCC1)C(=O)NCCOCC1CC1
Second: CC(C)C(=O)N1CCCN(C(=O)C2CC3CCC2C3)CC1 (centres undefined)
The “% Inhibition” value of the first is lower: -5% for the first, 1% for the second.

Going from `COc1cc(NC(=O)C2CCN(S(C)(=O)=O)CC2)ncn1` to `Cc1cccc(CS(=O)(=O)N2CCC(C(=O)Nc3cccnc3)CC2)c1`, the Z score rises from 0.34 to 2.48.

Going from `O=C(Cc1ccc[nH]1)Nc1ccc(O)c(Cl)c1` to `O=C(NCc1ccccc1)c1nn[nH]c1Nc1cccc(Cl)c1`, the Z score rises from 0.72 to 0.79.

Going from `CCn1c(C(=O)NCCN2CCCC2)c(N2CCCC2=O)c2cc(F)ccc21` to `Cn1cc(S(=O)(=O)N2CCCCC2)cc1C(=O)NCCc1cccc(Cl)c1`, the Z score rises from -0.41 to 1.59.

First: COC(=O)c1ccc(CN(C)CC(=O)NCCC2CCCCC2)nc1
Second: Cc1cnc(C)c(-c2ccc(C(=O)NCCN3CCCC[C@@H]3CO)cc2)n1
The Z score of the first is higher: 1.56 for the first, 1.39 for the second.

First: Cc1cnc(CNC(=O)Nc2cccc3c2CCCC3)cn1
Second: COCc1nccc(NC(=O)N[C@H]2CCCc3ccccc3C2)n1
The Z score of the first is lower: -1.06 for the first, 0.5 for the second.

Going from `Cc1oncc1CN1CCN(c2ccccn2)CC1` to `O=C(Cc1cccc2ccccc12)N1CCN(c2ccccn2)CC1`, the Z score falls from 0.37 to -0.08.

Going from `O=C(Nc1nc2ccccn2n1)N[C@H]1CCN(c2ccc(Cl)cc2Cl)C1` to `C[C@H](NC(=O)Nc1nc2ccccn2n1)C1CCOCC1`, the Z score falls from 1.17 to 0.87.

Going from `CC1CN(C(=O)Cc2cccc3ccccc23)CC(C)O1` (centres undefined) to `COCC(=O)N(C1CCOCC1)[C@H]1CCCN(C(=O)c2ccc3ccccc3n2)C1`, the Z score falls from 1.61 to 1.1.

First: CC(C)n1nccc1-c1ccc(-n2ccnc2)nn1
Second: Cc1nccnc1-c1ccn(CC(=O)Nc2cc(C(C)C)nn2C)n1
The Z score of the first is higher: 2.6 for the first, 1.39 for the second.

First: CCOC(=O)c1nnsc1N1CCN(c2ccc(OC)cc2)CC1
Second: COc1cccc(N2CCN(C(=O)c3ccc(C)c(-n4nnc5cccnc54)c3)CC2)c1
The Z score of the first is lower: -0.65 for the first, 1.87 for the second.

Going from `Cc1cc(=O)c(C(=O)N(CC(C)C)[C@H]2CCCc3cccnc32)c[nH]1` to `O=C(c1cnccn1)N1C[C@@H]2OCC(=O)N(Cc3ccc(F)cc3)[C@@H]2C1`, the Z score falls from 0.64 to 0.31.

Going from `CN(C)CCNC(=O)c1ccc(-c2ccnc(N3CCCC3)n2)cc1` to `COc1ccnc(N2CCn3ccnc3C2)n1`, the Z score falls from 0.73 to -1.54.

Compared with `Cc1cc(CN(C)[C@H]2CCC(=O)N(CC3CCCCC3)CC2)on1`, `CCNC(=O)NCC[C@H]1CN(C2CCCCCC2)CCO1` is lower in Z score: 1.17 for the first, -0.04 for the second.

First: Cc1nnccc1C(=O)N1CC2(CCCC2)C1
Second: Cc1cccc(C(=O)N2C[C@@H]3CC[C@H]2CN(C(=O)c2cccnc2)C3)c1O
The Z score of the first is higher: 3.58 for the first, -0.92 for the second.

Going from `CCN(CC)c1nc2cc(C(=O)NCc3ccccc3OC)ccc2c(=O)n1Cc1ccccc1` to `Cc1cccc(-c2nnc3c4ccc(Cl)cc4nc(N4CCN(Cc5cccc(F)c5)CC4)n23)c1`, the Z score rises from -0.64 to 1.19.

First: Cc1nc[nH]c1CN1C[C@H]2CC[C@@H](C1)N(C(=O)c1ncc(F)cc1F)C2
Second: Cc1nn(CC(=O)N2C[C@H](C)Oc3cc(F)c(F)cc32)c(=O)n1C
The Z score of the first is lower: 0.04 for the first, 0.5 for the second.

First: CC1(C)CC[C@H](CNC(=O)c2cnn(-c3ccc(F)cc3)n2)O1
Second: Cc1cnc(N)nc1N1CCC(Nc2ccccn2)CC1
The Z score of the first is higher: -0.33 for the first, -2.53 for the second.

First: CC(C)[C@H](C)N(CC(=O)NCCc1ccc(S(N)(=O)=O)cc1)C1CC1
Second: O=S(=O)(c1ccc(C2CCCCC2)cc1)N1CCNCC1
The Z score of the first is higher: 1.4 for the first, 0.71 for the second.

Going from `Cc1ccc2c(-c3cnc(N)s3)c[nH]c2c1` to `N#Cc1ccnc(N2CC[C@H]3[C@H](CCC(=O)N3CCc3c[nH]cn3)C2)c1`, the Z score rises from 0.76 to 1.43.

Going from `COc1c(-c2noc(C3CCNCC3)n2)cc2c(c1OC)OCO2` to `CNS(=O)(=O)C[C@H]1CCCN1c1nnc(C)c(C)c1C#N`, the Z score falls from 0.63 to -0.13.

First: CN(CC1CCC1)C(=O)NCCOCC1CC1
Second: CC(C)C(=O)N1CCCN(C(=O)C2CC3CCC2C3)CC1 (centres undefined)
The Z score of the first is higher: 0.46 for the first, -0.18 for the second.

Source: ChEMBL document CHEMBL4888484, “Replenishing the malaria drug discovery pipeline: Screening and hit evaluation of the MMV Hit Generation Library 1 (HGL1) against asexual blood stage Plasmodium falciparum ,using a nano luciferase reporter read-out” (2022)
